Experimental findings from the supplement of paper PMC3334620 are described below.

Over roughly 33,000 sequences, “E-score (-0.5 to 0.5)” has its median near -0.032; the highest 2% begin near 0.36. The list shows a part of the results.

For this assay, the target named is T1, Sko1 (UniProt Q02100).
T1 sequence: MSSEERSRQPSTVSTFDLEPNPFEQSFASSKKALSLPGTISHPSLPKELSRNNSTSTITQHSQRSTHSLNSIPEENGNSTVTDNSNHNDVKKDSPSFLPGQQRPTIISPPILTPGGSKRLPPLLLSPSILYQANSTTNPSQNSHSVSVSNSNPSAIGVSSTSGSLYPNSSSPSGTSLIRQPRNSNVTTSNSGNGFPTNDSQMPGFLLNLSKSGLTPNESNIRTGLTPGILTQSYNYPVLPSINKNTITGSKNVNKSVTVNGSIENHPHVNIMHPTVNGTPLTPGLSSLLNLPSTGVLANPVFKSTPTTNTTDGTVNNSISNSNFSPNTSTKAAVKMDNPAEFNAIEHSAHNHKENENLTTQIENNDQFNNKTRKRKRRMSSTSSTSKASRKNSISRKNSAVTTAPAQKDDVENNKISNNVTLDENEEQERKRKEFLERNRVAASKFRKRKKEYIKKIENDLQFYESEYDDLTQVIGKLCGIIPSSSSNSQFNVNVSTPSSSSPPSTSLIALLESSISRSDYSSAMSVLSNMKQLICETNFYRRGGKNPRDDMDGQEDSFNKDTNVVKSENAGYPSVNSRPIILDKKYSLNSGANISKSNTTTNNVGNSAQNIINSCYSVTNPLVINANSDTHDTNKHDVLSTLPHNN
Description: PBM E-score (8-mer binding enrichment) (E-score (-0.5 to 0.5)); higher = stronger / more preferred TF binding; most listed sequences are background and not binding sites. The note with it: protein concentration: 200 nM; construct: GST-full length. The method in brief: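 The E-score, a modified Wilcoxon-Mann-Whitney statistic, was computed by the Universal PBM Analysis Suite for every ungapped eight-base word pooled with its reverse complement. Scans behind it were normalised with masliner after bound GST-tagged yeast transcription factors were detected with fluorescent anti-GST. The proteins, at about 100-200 nM, had been applied to universal all-10-mer Agilent arrays made double-stranded by primer extension.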
Take GCCGATCC: the “PBM E-score” value is -0.179.
On to GTGGTGCA, for which the “PBM E-score” value was -0.0179.
Next, AACCAGAC: -0.0273; CCATCTGC: -0.0664.
The same measure for AGTGCAAC: -0.0845; for GTGCTCGA: 0.0264.
Take GTGTGGTA: the “PBM E-score” value amounted to 0.0525.
The same measure for AAACGCAA: 0.335.
On to GAGCATCC, for which the “PBM E-score” value was -0.287.
The same measure for CGCAATAC: 0.353; for CCGTCCAG: -0.146.
The same measure for CCGCGTAG: 0.0625; for TAACGCAA: 0.312.
Regarding GTGCCATA, the “PBM E-score” value is 0.0178.
Next, GATGATGC: 0.287.
Regarding GCTAAGCC, the “PBM E-score” value is -0.23.
The same measure for GGATACTA: -0.192.
GAACGTTA: the “PBM E-score” value came out at 0.18.
Next, ACACAGGC: -0.161; AAGAGTGG: -0.237; GGAACCAA: -0.153.
The same measure for GATCCCCC: -0.38; for GGTCTAGA: 0.0496; for CATTACGG: 0.292.
With GCGCATAC, the “PBM E-score” value worked out at 0.103.
Next, CACGGTAA: -0.0239; CTCCTCAA: -0.203.
The same measure for CGCTAGCC: -0.238.
The same measure for GTTCCCAA: -0.141.
As to CCGATATA, the “PBM E-score” value came to 0.0219.
Next, CTCCCCAA: -0.143; AATTATTA: 0.298; ATCTAAAG: 0.00277.
On to CTTAGGCC, for which the “PBM E-score” value is -0.202.
In the case of CCGTTCAG, the “PBM E-score” value was -0.294.
Next, AGTTGCCG: -0.0106; CCTTTTCG: 0.0232; ACGTCTAA: 0.344.
The same measure for CGCAACAC: 0.23; for GCGCAACC: -0.162.
The same measure for GGCCAGAA: -0.216; for CAGACGAA: 0.0971.
Turning to CGCTTCGA, the “PBM E-score” value was -0.159.
Next, AAACCGCG: 0.0382.
On to CGAGCAAA, for which the “PBM E-score” value is -0.291.
Next, CCGAGATA: 0.00305; ACTACTTA: 0.024; TCCCGGGA: -0.183.
With CCTCGGCA, the “PBM E-score” value was -0.133.
Regarding ACAACAAA, the “PBM E-score” value came to 0.225.
CTCTGGAA: the “PBM E-score” value is 0.0683.
Next, AAGCACCG: -0.293; CACTGGAC: -0.0032; GCGCCTGA: -0.152.
The same measure for ATAGGGAT: -0.104; for GTCACAAC: 0.182.
Next, GCGAGGAC: -0.251.
With CGACGGAA, the “PBM E-score” value is -0.105.
Next, CTTGCTTC: 0.0228; AGTTCATA: 0.0294; AGAAATCA: 0.0843.
The same measure for CCCCTAGA: -0.22.
Next, CCACACAC: -0.0596; CTCCGGAC: -0.168.
As for AACGCGCG, the “PBM E-score” value stood at 0.185.
For the sequence ATGGAAAT, the “PBM E-score” value came to 0.131.
Next, GGGATACA: -0.321; GGCAGCGA: -0.28; ACCGAGGC: -0.319.
The same measure for GACGGTCA: 0.0778; for GGTCTCGA: -0.126; for CTACGCAA: 0.414.
Regarding CCTAGCAG, the “PBM E-score” value is -0.253.
Regarding GTTGGTTA, the “PBM E-score” value is 0.149.
The same measure for AGTCTTAT: 0.111.
The same measure for AGTTTACG: 0.354; for CACCTGGG: -0.194.
Regarding AGTGATGG, the “PBM E-score” value is -0.0618.
As for AGCCACGA, the “PBM E-score” value was -0.218.
In the case of CCATCGAC, the “PBM E-score” value is -0.255.
As for ATGGTAAC, the “PBM E-score” value came out at 0.15.
On to TAGAAAAA, for which the “PBM E-score” value worked out at 0.128.
Next, AACTATGA: 0.195; GAACGTCC: 0.117; ACTTAGTG: 0.00172.
The same measure for AGGCCATA: -0.301; for AGGATAAC: -0.0505; for ATCGATAC: 0.0878.
As to GCCACGTA, the “PBM E-score” value was found to be 0.421.
Next, CCCGCAGC: -0.313; CTATCTGC: -0.161; GGGAAATA: 0.0114.
Next, GGCAGTTA: -0.0613; CAACGGCA: -0.157.
Take GATCGCAA: the “PBM E-score” value stood at 0.0791.
Next, CGCGGTCC: -0.202; CATGCTTC: -0.0498.
Next, AAATGAAC: 0.075; GTCATTAA: 0.393.
The same measure for GACAGATA: 0.0381; for CAGCTACG: 0.265.
For the sequence CAGAGCGG, the “PBM E-score” value is -0.134.
For the sequence AGTTGTTG, the “PBM E-score” value was -0.114.
The same measure for CCTGCCTA: -0.201; for ATATACTA: 0.103; for CCCGTGTA: -0.302.
Regarding TCAGTCGA, the “PBM E-score” value was 0.0544.
Consider CCTGAGAA, for which the “PBM E-score” value worked out at 0.0886.
Next, AAGAAACG: 0.169.
